One experiment concerns the target T1, His6-IraP (E. coli) (UniProt P0AAN9).
T1 sequence: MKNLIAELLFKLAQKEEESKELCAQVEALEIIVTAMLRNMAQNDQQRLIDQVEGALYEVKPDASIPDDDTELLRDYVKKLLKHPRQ
The experiment is described as follows: pull-down; soluble lysates of BL21(DE3) codon+ cells overexpressing untagged RssB (full-length wild type or mutant, or single domains) with or without His6-IraM or His6-IraP; extraction buffer (20 mM Tris-HCl pH 7.9, 500 mM NaCl, 10% glycerol, 10 mM imidazole, 1% Triton X-100); Ni-NTA agarose, 30 min at 4°C; eluted with imidazole; immunoblotting. On the technique in general: In western blotting, separated proteins are transferred to a membrane and probed.

The target of experiment [1] is T2, His6-IraM (E. coli) (UniProt P75987).
T2 sequence: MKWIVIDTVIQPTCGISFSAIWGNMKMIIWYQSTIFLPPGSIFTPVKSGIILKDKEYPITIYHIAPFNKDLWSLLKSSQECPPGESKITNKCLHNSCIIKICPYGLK
Described as above.

The target in experiment [2] is T3, His10-tagged IraD (E. coli) (UniProt P39375).
T3 sequence: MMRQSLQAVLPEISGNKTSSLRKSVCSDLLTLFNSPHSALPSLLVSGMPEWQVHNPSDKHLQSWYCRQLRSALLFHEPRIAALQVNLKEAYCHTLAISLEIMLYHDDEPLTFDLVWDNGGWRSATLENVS
The experiment is described as follows: pull-down; purified His10-tagged IraD immobilised on Ni-NTA agarose beads; purified untagged RssB, RssBN or RssBC added; washed, eluted with imidazole; SDS-PAGE, CBB; both purified.

Experiment [3] addresses T2, His6-IraM (E. coli). The experiment is described as follows: pull-down; in trans binding: soluble lysate with His6-IraP or His6-IraM (with or without RssBC) supplemented with 250 μg of RssBN; Ni-NTA agarose, 30 min at 4°C; eluted with imidazole; only the binder purified.

Results are given in words; binding and its absence hold for the method and conditions named. For some of these results: In cells and extracts the contact can be indirect. Some binding calls cover weakened binding; strength is not graded here. Sequences can lack the tags named with a protein.

B1: RssB, full-length, untagged, overexpressed in lysate (protein, UniProt P0AEV1 1-337)
chain: MTQPLVGKQILIVEDEQVFRSLLDSWFSSLGATTVLAADGVDALELLGGFTPDLMICDIAMPRMNGLKLLEHIRNRGDQTPVLVISATENMADIAKALRLGVEDVLLKPVKDLNRLREMVFACLYPSMFNSRVEEEERLFRDWDAMVDNPAAAAKLLQELQPPVQQVISHCRVNYRQLVAADKPGLVLDIAALSENDLAFYCLDVTRAGHNGVLAALLLRALFNGLLQEQLAHQNQRLPELGALLKQVNHLLRQANLPGQFPLLVGYYHRELKNLILVSAGLNATLNTGEHQVQISNGVPLGTLGNAYLNQLSQRCDAWQCQIWGTGGRLRLMLSAE
On to B1, for which the binding result in the experiment with His6-IraP (E. coli) and with His6-IraM (E. coli) [1] was “binds” throughout.

B2: RssBC (residues 131-337), untagged, overexpressed in lysate (domain or fragment, UniProt P0AEV1 131-337)
chain: SRVEEEERLFRDWDAMVDNPAAAAKLLQELQPPVQQVISHCRVNYRQLVAADKPGLVLDIAALSENDLAFYCLDVTRAGHNGVLAALLLRALFNGLLQEQLAHQNQRLPELGALLKQVNHLLRQANLPGQFPLLVGYYHRELKNLILVSAGLNATLNTGEHQVQISNGVPLGTLGNAYLNQLSQRCDAWQCQIWGTGGRLRLMLSAE
Consider B2, for which the binding entry with His6-IraP (E. coli) and with His6-IraM (E. coli) [1] was “binds” in each case.

B3: RssBC, C-terminal domain of RssB (residues 131-337), untagged, purified (domain or fragment, UniProt P0AEV1 131-337)
chain: SRVEEEERLFRDWDAMVDNPAAAAKLLQELQPPVQQVISHCRVNYRQLVAADKPGLVLDIAALSENDLAFYCLDVTRAGHNGVLAALLLRALFNGLLQEQLAHQNQRLPELGALLKQVNHLLRQANLPGQFPLLVGYYHRELKNLILVSAGLNATLNTGEHQVQISNGVPLGTLGNAYLNQLSQRCDAWQCQIWGTGGRLRLMLSAE
Take B3: the binding entry in experiment [2] is reported as “no binding”.

B4: RssBN (residues 1-129), untagged, overexpressed in lysate (domain or fragment, UniProt P0AEV1 1-129)
chain: MTQPLVGKQILIVEDEQVFRSLLDSWFSSLGATTVLAADGVDALELLGGFTPDLMICDIAMPRMNGLKLLEHIRNRGDQTPVLVISATENMADIAKALRLGVEDVLLKPVKDLNRLREMVFACLYPSMF
As for B4, the binding entry with His6-IraM (E. coli) [1] was “binds”.

B5: RssBN, N-terminal domain of RssB (residues 1-129), untagged, purified (domain or fragment, UniProt P0AEV1 1-129)
chain: MTQPLVGKQILIVEDEQVFRSLLDSWFSSLGATTVLAADGVDALELLGGFTPDLMICDIAMPRMNGLKLLEHIRNRGDQTPVLVISATENMADIAKALRLGVEDVLLKPVKDLNRLREMVFACLYPSMF
On to B5, for which the binding result in the experiment with His6-IraM (E. coli) [3] was “binds”.

Values taken from PMC4428439.
